# Reference: publication PMC9911399, “Two distinct binding modes provide the RNA-binding protein RbFox with extraordinary sequence specificity”
# Changes are numbered by the printed parent chain; changes in the protein carry UniProt numbers. The list shows a part of the results.
# T1: RBFOX1 RRM (Homo sapiens, UniProt Q9NWB1 109-208)
# T1 sequence: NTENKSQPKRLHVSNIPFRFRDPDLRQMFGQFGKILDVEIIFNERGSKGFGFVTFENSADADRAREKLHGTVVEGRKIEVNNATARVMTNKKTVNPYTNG
# B1: CAGCCAC (DNA:RNA)
# RNA: GGGAGACCGGAAUUCAGAUUGUCCCAGCCACUUAAAUCCCGUCGUAGCCACCA
# DNA 1: CAATCTGAATTCCGGTCTCCC
# DNA 2: TGGTGGCTACGACGGGATT
# B2: AGCCUAU (DNA:RNA)
# RNA: B1 RNA with C25A, A26G, G27C, C29U, C31U
# DNA 1: CAATCTGAATTCCGGTCTCCC
# DNA 2: TGGTGGCTACGACGGGATT
# B3: GAAUUUA (DNA:RNA)
# RNA: B1 RNA with C25G, G27A, C28U, C29U, A30U, C31A
# DNA 1: CAATCTGAATTCCGGTCTCCC
# DNA 2: TGGTGGCTACGACGGGATT
# B4: AUCAUUG (DNA:RNA)
# RNA: GGGAGACCGGAAUUCAGAUUGUCCAUCAUUGUUAAAUCCCGUCGUAGCCACCA
# DNA 1: CAATCTGAATTCCGGTCTCCC
# DNA 2: TGGTGGCTACGACGGGATT
# B5: UGAUUUU (DNA:RNA)
# RNA: B4 RNA with A25U, U26G, C27A, A28U, G31U
# DNA 1: CAATCTGAATTCCGGTCTCCC
# DNA 2: TGGTGGCTACGACGGGATT
# B6: UAGUUAU (DNA:RNA)
# RNA: B1 RNA with C25U, C28U, C29U, C31U
# DNA 1: CAATCTGAATTCCGGTCTCCC
# DNA 2: TGGTGGCTACGACGGGATT
# B7: UAGAUUC (DNA:RNA)
# RNA: B4 RNA with A25U, U26A, C27G, G31C
# DNA 1: CAATCTGAATTCCGGTCTCCC
# DNA 2: TGGTGGCTACGACGGGATT
# B8: GUACUCU (DNA:RNA)
# RNA: B4 RNA with A25G, C27A, A28C, U30C, G31U
# DNA 1: CAATCTGAATTCCGGTCTCCC
# DNA 2: TGGTGGCTACGACGGGATT
# B9: CAUUCGG (DNA:RNA)
# RNA: B1 RNA with G27U, C28U, A30G, C31G
# DNA 1: CAATCTGAATTCCGGTCTCCC
# DNA 2: TGGTGGCTACGACGGGATT
# Target: T1, RBFOX1 RRM
# Experiment: EMSA; HiTS-Eq, 1 nM pool, 10 min; buffer printed only for the single-RNA assays: 10 mM Tris pH 7.5, 150 mM NaCl, 3.4 mM EDTA, 0.001% NP-40, 30 C
# Settings: tags: His6 N-terminal (pET28a); label: 5' 32P
# Method in brief: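 Relative association constants, normalised to the cognate motif, were derived by comparing read counts of each RNA species with those of the control reaction. The RNA sequenced was the free fraction, separated by 8% native PAGE after a 10 min equilibration in 50 µL of 1 nM 5′-radiolabelled RNA (7 randomized nucleotides) with increasing concentrations of purified wild-type or mutant RbFox RRM.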
row,Binder,binding signal
1,B1,0.00328 KA relative to UGCAUGU
2,B2,0.00375 KA relative to UGCAUGU
3,B3,0.00394 KA relative to UGCAUGU
4,B4,0.0047 KA relative to UGCAUGU
5,B5,0.0194 KA relative to UGCAUGU
6,B6,0.00794 KA relative to UGCAUGU
7,B7,0.0117 KA relative to UGCAUGU
8,B8,0.0101 KA relative to UGCAUGU
9,B9,0.00582 KA relative to UGCAUGU
